Data as given in publication PMC9911399, “Two distinct binding modes provide the RNA-binding protein RbFox with extraordinary sequence specificity”.
Residue numbers refer to the chain shown, from its start. Some of the results follow.

T1: RBFOX1 RRM (Homo sapiens, UniProt Q9NWB1 109-208)
T1 sequence: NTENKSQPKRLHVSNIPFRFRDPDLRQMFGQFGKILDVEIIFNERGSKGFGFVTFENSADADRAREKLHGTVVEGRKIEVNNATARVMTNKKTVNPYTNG

B1: UCUACGA (DNA:RNA)
RNA: GGGAGACCGGAAUUCAGAUUGUCCUCUACGAUUAAAUCCCGUCGUAGCCACCA
DNA 1: CAATCTGAATTCCGGTCTCCC
DNA 2: TGGTGGCTACGACGGGATT
B2: AAUAAGC (DNA:RNA)
RNA: B1 RNA with U25A, C26A, C29A, A31C
DNA 1: CAATCTGAATTCCGGTCTCCC
DNA 2: TGGTGGCTACGACGGGATT
B3: GCCCGCU (DNA:RNA)
RNA: B1 RNA with U25G, U27C, A28C, C29G, G30C, A31U
DNA 1: CAATCTGAATTCCGGTCTCCC
DNA 2: TGGTGGCTACGACGGGATT
B4: GGCUAUA (DNA:RNA)
RNA: B1 RNA with U25G, C26G, U27C, A28U, C29A, G30U
DNA 1: CAATCTGAATTCCGGTCTCCC
DNA 2: TGGTGGCTACGACGGGATT
B5: CUGCGAC (DNA:RNA)
RNA: GGGAGACCGGAAUUCAGAUUGUCCCUGCGACUUAAAUCCCGUCGUAGCCACCA
DNA 1: CAATCTGAATTCCGGTCTCCC
DNA 2: TGGTGGCTACGACGGGATT
B6: GAAGACC (DNA:RNA)
RNA: B5 RNA with C25G, U26A, G27A, C28G, G29A, A30C
DNA 1: CAATCTGAATTCCGGTCTCCC
DNA 2: TGGTGGCTACGACGGGATT
B7: AGCUUAU (DNA:RNA)
RNA: B5 RNA with C25A, U26G, G27C, C28U, G29U, C31U
DNA 1: CAATCTGAATTCCGGTCTCCC
DNA 2: TGGTGGCTACGACGGGATT
B8: ACUCUUU (DNA:RNA)
RNA: B1 RNA with U25A, A28C, C29U, G30U, A31U
DNA 1: CAATCTGAATTCCGGTCTCCC
DNA 2: TGGTGGCTACGACGGGATT
B9: ACCUCCU (DNA:RNA)
RNA: B1 RNA with U25A, U27C, A28U, G30C, A31U
DNA 1: CAATCTGAATTCCGGTCTCCC
DNA 2: TGGTGGCTACGACGGGATT
B10: CUAACCC (DNA:RNA)
RNA: B5 RNA with G27A, C28A, G29C, A30C
DNA 1: CAATCTGAATTCCGGTCTCCC
DNA 2: TGGTGGCTACGACGGGATT
B11: CGAGUCG (DNA:RNA)
RNA: B5 RNA with U26G, G27A, C28G, G29U, A30C, C31G
DNA 1: CAATCTGAATTCCGGTCTCCC
DNA 2: TGGTGGCTACGACGGGATT
B12: GCUAUCC (DNA:RNA)
RNA: B1 RNA with U25G, C29U, G30C, A31C
DNA 1: CAATCTGAATTCCGGTCTCCC
DNA 2: TGGTGGCTACGACGGGATT
B13: GAUCUUU (DNA:RNA)
RNA: B5 RNA with C25G, U26A, G27U, G29U, A30U, C31U
DNA 1: CAATCTGAATTCCGGTCTCCC
DNA 2: TGGTGGCTACGACGGGATT
B14: ACCGACU (DNA:RNA)
RNA: B1 RNA with U25A, U27C, A28G, C29A, G30C, A31U
DNA 1: CAATCTGAATTCCGGTCTCCC
DNA 2: TGGTGGCTACGACGGGATT
B15: ACGCCCA (DNA:RNA)
RNA: B1 RNA with U25A, U27G, A28C, G30C
DNA 1: CAATCTGAATTCCGGTCTCCC
DNA 2: TGGTGGCTACGACGGGATT
B16: CGGGAUA (DNA:RNA)
RNA: B5 RNA with U26G, C28G, G29A, A30U, C31A
DNA 1: CAATCTGAATTCCGGTCTCCC
DNA 2: TGGTGGCTACGACGGGATT
B17: GCAACAA (DNA:RNA)
RNA: B1 RNA with U25G, U27A, G30A
DNA 1: CAATCTGAATTCCGGTCTCCC
DNA 2: TGGTGGCTACGACGGGATT
B18: CCCUUAG (DNA:RNA)
RNA: B5 RNA with U26C, G27C, C28U, G29U, C31G
DNA 1: CAATCTGAATTCCGGTCTCCC
DNA 2: TGGTGGCTACGACGGGATT
B19: UCUAUGG (DNA:RNA)
RNA: B1 RNA with C29U, A31G
DNA 1: CAATCTGAATTCCGGTCTCCC
DNA 2: TGGTGGCTACGACGGGATT
B20: CAUUGGC (DNA:RNA)
RNA: B5 RNA with U26A, G27U, C28U, A30G
DNA 1: CAATCTGAATTCCGGTCTCCC
DNA 2: TGGTGGCTACGACGGGATT

The binders below were run against T1, RBFOX1 RRM (assay: EMSA; HiTS-Eq, 1 nM pool, 10 min; buffer printed only for the single-RNA assays: 10 mM Tris pH 7.5, 150 mM NaCl, 3.4 mM EDTA, 0.001% NP-40, 30 C). Conditions: tags: His6 N-terminal (pET28a); label: 5' 32P.
Method in brief: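 Purified wild-type or mutant RbFox RRM at increasing concentrations was equilibrated with 1 nM of 5′-radiolabelled RNA carrying 7 randomized nucleotides for 10 min in 50 µL. Unbound RNA was separated by 8% native PAGE and sequenced. Relative association constants came from read-count changes of each RNA species compared with the control reaction, normalised to the cognate motif.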
With B1 the binding signal was 0.00859 KA relative to UGCAUGU. With B2 the binding signal was 0.00297 KA relative to UGCAUGU. B3 was tested, and the binding signal was 0.0168 KA relative to UGCAUGU. B4 was tested, and the binding signal was 0.00398 KA relative to UGCAUGU. B5 was tested, and the binding signal was 0.00552 KA relative to UGCAUGU. For B6, the binding signal was 0.00626 KA relative to UGCAUGU. For B7, the binding signal was 0.00288 KA relative to UGCAUGU. For B8, the binding signal was 0.00357 KA relative to UGCAUGU. With B9 the binding signal was 0.00169 KA relative to UGCAUGU. With B10 the binding signal was 0.00193 KA relative to UGCAUGU. With B11 the binding signal was 0.0112 KA relative to UGCAUGU. For B12, the binding signal was 0.00834 KA relative to UGCAUGU. With B13 the binding signal was 0.0119 KA relative to UGCAUGU. For B14, the binding signal was 0.00408 KA relative to UGCAUGU. B15 was tested, and the binding signal was 0.000356 KA relative to UGCAUGU. In the case of B16, the binding signal is reported as 0.0195 KA relative to UGCAUGU. With B17 the binding signal was 0.00553 KA relative to UGCAUGU. With B18 the binding signal was 0.00737 KA relative to UGCAUGU. In the case of B19, the binding signal is reported as 0.00832 KA relative to UGCAUGU. For B20, the binding signal was 0.0132 KA relative to UGCAUGU.
